Patent US12338279B2, “Selective and potent inhibitory antibodies of myostatin activation” (SCHOLAR ROCK, INC., priority 2022, dated 2025)

What was measured:
total myostatin in serum [1] = assay: Circulating total myostatin in serum (acidification ELISA), dexamethasone model; assay type: in vivo, mouse; details: for Circulating total myostatin levels: terminal serum
Text: Briefly, serum samples were acidified at low pH (e.g., pH ˜2.5) to dissociate the bound antibody from the immune complex and to convert all myostatin in the sample to the active form of growth factor (i.e., mature myostatin). Samples were then neutralized and assayed for the presence of mature myostatin on ELISA plates coated with anti-mature myostatin antibodies as capture reagents.

total myostatin in serum [2] = assay: Total serum myostatin, liraglutide study; assay type: in vivo, mouse; details: for Myostatin (total serum myostatin): terminal bleed serum
Method: Levels of the antibodies' exposure to myostatin in the serum was measured by assaying for total myostatin in the serum (Lakshman (2009) Cellular Endocrinol 302:26). […] The samples were then neutralized and assayed for mature growth factor.

[3] = tested on: diet-induced obese mice on liraglutide; assay: High fat diet (DIO) mice treated with liraglutide and antibody; assay type: in vivo, mouse
Method: Caloric restriction causes loss of both fat and lean mass; inhibiting myostatin maintains lean mass during weight loss. […] Changes in body composition were assessed by qNMR readout for fat mass and lean mass; gastrocnemius weight; and inguinal and perigonadal fat pad weight.
Ten-week-old male mice were fed formula D12492 ad lib, a high-calorie diet comprised of 60% fat, and remained on this diet throughout the study. The antibodies were dosed weekly and liraglutide was dosed daily. Body composition and body weight were measured by qNMR prior to dosing, at 2 weeks, and at the end of the dosing period body weight. Gastrocnemius muscles were removed, and their weights were measured after the animals were terminated.

[4] = tested on: dexamethasone-induced muscle atrophy in C57BL6 male mice; assay: Dexamethasone-induced muscle atrophy mouse model; assay type: in vivo
Text: To evaluate in vivo efficacy of the novel myostatin-selective inhibitors disclosed herein, the ability of the antibodies to preserve lean muscle mass was examined in a dexamethasone-induced atrophy mouse model. An excess of glucocorticoids directly stimulates myostatin production via interactions with a glucocorticoid response element in the myostatin promoter, thus inducing loss of muscle mass. As shown herein, antibodies of the disclosure prevented glucocorticoid-induced muscle atrophy.
C57BL6 male mice (n=8) at 13-14 weeks of age were given normal drinking water or water containing dexamethasone at a concentration of 2.5 mg/kg (17.5 grams dexamethasone per liter of drinking water) to induce atrophy. […] Body weight was measured daily. Body composition was measured by qNMR to determine lean mass pre-dosing, at day 7, and at day 14. After 14 days of dexamethasone exposure, the animals were terminated, and body weight and gastrocnemius weight were measured. Terminal blood for each animal was also collected.
C57BL6 male mice (n=8) at 13-14 weeks of age were given normal drinking water or water containing dexamethasone at a concentration of 2.5 mg/kg to induce atrophy. Mice were dosed at day 1 and day 7 with vehicle (PBS), IgG control (“hIgG”) or different doses of the test antibodies, as shown in Table 13. Muscle mass at days −1, 6 and 13 was measured using qNMR. At the end of the study (day 14), serum from each animal was collected and changes in body weight, body composition (qNMR), left and right gastrocnemius weight, and left and right quadriceps weight were measured. Statistical analysis was performed by ANOVA (Dunnett's multiple comparison test).
In a third experiment, antibody doses ranging from 0.3 mg/kg to 10 mg/kg were compared for their effectiveness in attenuating dexamethasone-induced atrophy. C57BL6 male mice (n=8) at 13-14 weeks of age were given normal drinking water or water containing dexamethasone at a concentration of 2.5 mg/kg to induce atrophy. Mice were dosed at day 1 and day 7 with vehicle (PBS), human IgG control (“hIgG”) or different doses of the test antibodies, as shown in Table 14 below. qNMR was used to measure muscle mass at days-1, 6 and 13. At day 14 the study ended, serum was collected and changes in body composition (qNMR), left and right gastrocnemius weight, and left and right quadriceps weight were determined. Circulating myostatin was measured in the serum of a terminal bleed taken at day 14. Statistical analysis was performed by ANOVA (Dunnett's multiple comparison test).
In a fourth experiment, antibodies Ab109 and Ab133 were compared to control human IgG and Ab2 in the same protocol as described above.

[5] = Terminal serum antibody exposure, dexamethasone model; assay type: in vivo, mouse; details: day 1 and day 7, dexamethasone-treated mice
Method: Antibody exposure and circulating total myostatin levels were measured in the serum collected from the terminal bleeds after treatment with Ab2, Ab130 and Ab109. The results are shown in Table 15 and Table 16 respectively.

[6] = AC-SINS self-interaction (aggregation behavior); assay type: physicochemical; details: cutoff shift >5 nm in plasmon wavelength
Procedure, shortened: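 Antibodies captured on gold nanoparticles coated with polyclonal anti-human-mAb antibodies; self-association shifts the plasmon absorbance maximum toward red. Value reported as plasmon wavelength, with 530 nm as unaggregated reference; shift >5 nm taken as self-interacting.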

[7] = tested on: biotinylated murine pro-myostatin; assay: Biacore 8k SPR binding affinity, murine pro-myostatin; design: species or system mouse
Text: (§1) The Biacore™ 8 k SPR system was utilized to evaluate the binding affinity of myostatin antibodies to biotinylated human, murine, and cyno pro-myostatin. Biotin CAPture kit and sensor chips (Cytiva) were utilized in these experiments to immobilize the various antigens, followed by flowing a range of concentrations of each of the test antibodies.

[8] = target: T1, biotinylated cyno pro-myostatin (Macaca fascicularis, UniProt Q95J86); assay: Biacore 8k SPR binding affinity, cyno pro-myostatin; design: species or system cynomolgus monkey
T1 construct: biotin (label)
Text: as §1

[9] = tested on: biotinylated human pro-myostatin; assay: Biacore 8k SPR binding affinity, human pro-myostatin
Text: as §1

[10] = in combination with liraglutide

B1: Ab130: anti-pro/latent myostatin antibody; CDRs in Tables 2d-f, variable domains Table 3, chains Table 4 (antibody)
heavy: EVQLVESGGGLVQPGGSLRLSCAASGFTFTSYGMSWVRQAPGKGLELVASITGSGGETYYPDSVKGRFTISRDNAKNSLYLQMNSLRAEDTAVYYCARDLLVRFLEWSHYYGMDVWGQGTTVTVSSASTKGPSVFPLAPCSRSTSESTAALGCLVKDYFPEPVTVSWNSGALTSGVHTFPAVLQSSGLYSLSSVVTVPSSSLGTKTYTCNVDHKPSNTKVDKRV[human IgG4 Fc with S228P (EU numbers) left out]
light: DIVMTQSPLSLPVTPGEPASISCRSSQSLLHSSGHNFLHWYLQKPGQSPQLLIYETSNRAPGIPDRFSGSGSGTDFTLKISRVEAEDVGVYYCQQATQFPRPFGGGTKVEIKRTVAAPSVFIFPPSDEQLKSGTASVVCLLNNFYPREAKVQWKVDNALQSGNSQESVTEQDSKDSTYSLSSTLTLSKADYEKHKVYACEVTHQGLSSPVTKSFNRGEC
For B1, the “accumulation of total or latent myostatin in serum samples from dosed subjects” value (total myostatin in serum [1]; as compared to apitegromab) was “reduced accumulation of circulating latent myostatin”, the “total circulating myostatin in serum” value (total myostatin in serum [1]; dexamethasone-treated mice, FIG. 8, FIG. 15A) was “lower levels of total circulating myostatin as compared to Ab2 treatment; also recorded: increase in serum myostatin levels” and the “Circulating total myostatin levels” value (total myostatin in serum [1]; dose 0.3 mg/kg, dexamethasone-treated mice) was 473.8 ng/mL. The “Circulating total myostatin levels” value (total myostatin in serum [1]; dose 1 mg/kg, dexamethasone-treated mice) was 567.3 ng/mL, the “Circulating total myostatin levels” value (total myostatin in serum [1]; dose 3 mg/kg, dexamethasone-treated mice) was 585.6 ng/mL and the “Circulating total myostatin levels” value (total myostatin in serum [1]; dose 10 mg/kg, dexamethasone-treated mice) was 325.2 ng/mL. The “Myostatin (total serum myostatin)” value (total myostatin in serum [2]; antibody 1 mg/kg/week + liraglutide 0.06 mg/kg q.d.) was 52.9 ng/mL, the “Myostatin (total serum myostatin)” value (total myostatin in serum [2]; antibody 3 mg/kg/week + liraglutide 0.06 mg/kg q.d.) was 41.5 ng/mL and the “Myostatin (total serum myostatin)” value (total myostatin in serum [2]; antibody 10 mg/kg/week + liraglutide 0.06 mg/kg q.d.) was 41.0 ng/mL. For the same molecule, the “Myostatin (total serum myostatin)” value (total myostatin in serum [2]; antibody 20 mg/kg/week + liraglutide 0.06 mg/kg q.d.) was 42.4 ng/mL, the total serum myostatin (total myostatin in serum [2]; liraglutide-treated mice, Table 21, FIG. 15B) was “reduced total serum myostatin concentrations compared to Ab2; also recorded: increase in serum myostatin levels” and the lean mass ([3]; antibody with liraglutide, FIG. 11E) was “lean mass increased; also recorded: greater increases in lean mass compared to Ab2”. The gastrocnemius muscle mass ([3]; antibody with liraglutide, FIG. 11F) was “more effective at increasing gastrocnemius mass than Ab2”, the “subcutaneous inguinal fat pad fat mass” value [3, 10] was “reduced the fat mass in the subcutaneous inguinal fat pad” and the “visceral perigonadal fat pad fat mass” value [3, 10] was “reduced the fat mass in the visceral perigonadal fat pad to a greater extent”. The “body weight of mice on high fat diet” value ([3]; liraglutide daily, antibody weekly for four weeks, FIGS. 11A-D) was “lost more body weight compared to those treated with Ab2; also recorded: lost slightly less weight than those treated with liraglutide and an IgG control”, the fat mass ([3]; with liraglutide, FIG. 11G) was “decreased fat mass to a greater extent than Ab2” and the “body weight loss in dexamethasone treated mice” value ([4]; doses 0.3-10 mg/kg on day 1 and day 7, dose as in the words, FIG. 7A, FIG. 10A) was “efficacious in preserving body weight”. The “lean mass by qNMR in dexamethasone treated mice” value ([4]; doses 0.3-10 mg/kg, dose as in the words, FIG. 7B, FIG. 10B) was “At a dose of 10 mg/kg, Ab130 showed greater efficacy in preserving lean mass than Ab2”, the “gastrocnemius muscle weight in dexamethasone treated mice” value ([4]; doses 0.3-10 mg/kg, dose as in the words, FIG. 7C, FIG. 10C) was “more efficacy at 3 mg/kg than both doses of Ab2” and the “quadriceps muscle weight in dexamethasone treated mice” value ([4]; doses 0.3-10 mg/kg, dose as in the words, FIG. 7D, FIG. 10D) was “more efficacy at 3 mg/kg than both doses of Ab2”. It also gave a Terminal antibody exposure ([5]; dose 0.3 mg/kg) of 1.2 µg/mL, a Terminal antibody exposure ([5]; dose 1 mg/kg) of 4.7 µg/mL and a Terminal antibody exposure ([5]; dose 3 mg/kg) of 93.1 µg/mL. The Terminal antibody exposure ([5]; dose 10 mg/kg) was 488.4 µg/mL.

B2: Ab106: anti-pro/latent myostatin antibody; CDRs in Tables 2d-f, variable domains Table 3, chains Table 4 (antibody)
heavy: EVQLVESGGGLVQPGGSLRLSCAASGSAFSSYGMSWVRQAPGKGLELVASINSNGGSTYYPDSVKGRFTISRDNAKNSLYLQMNSLRAEDTAVYYCARDLLVRFLEWAGYYGMDVWGQGTTVTVSSASTKGPSVFPLAPCSRSTSESTAALGCLVKDYFPEPVTVSWNSGALTSGVHTFPAVLQSSGLYSLSSVVTVPSSSLGTKTYTCNVDHKPSNTKVDKRV[human IgG4 Fc with S228P (EU numbers) left out]
light: DIVMTQSPLSLPVTPGEPASISCRSSQSLLHSSGHNFLHWYLQKPGQSPQLLIYEVSNRVSGVPDRFSGSGSGTDFTLKISRVEAEDVGVYYCMQQTQYPPTFGGGTKVEIKRTVAAPSVFIFPPSDEQLKSGTASVVCLLNNFYPREAKVQWKVDNALQSGNSQESVTEQDSKDSTYSLSSTLTLSKADYEKHKVYACEVTHQGLSSPVTKSFNRGEC
In the case of B2, the “aggregation behavior by AC-SINS” value [6] is reported as “did not display aggregation behavior”, the “Ka” value [7] is reported as 1.96e+06 M⁻¹ s⁻¹ and the “Kd (1/s)” value [7] is reported as 0.000317 s⁻¹. The “Ka” value [8] was 1.91e+06 M⁻¹ s⁻¹, the “Kd” value [8] was 0.000291 s⁻¹ and the “Ka” value [9] was 2e+06 M⁻¹ s⁻¹. For the same molecule, the “Kd (1/s)” value [9] was 0.000224 s⁻¹.

Entries after “also recorded” stand apart in the source; their conditions may differ.
